# Data: PubChem BioAssay AID624296 (National Center for Advancing Translational Sciences (NCATS), 2012)
# Hit rate of the full screen: of about 350,000 compounds, about 9,900 (2.8%) were called active. Inconclusive means that the source gave no clear call. Such entries were picked first, then a sample of the others. Calls come from the whole dose curve; as a rule, active = well fitted activation curve with a large enough effect; inconclusive = small, poorly fitted or top-dose-only effect; inactive = no such curve, though single readings can be large or run the other way. Potencies of inconclusive entries are left out as doubtful fits.
# Assay: A quantitative high throughput screen for small molecules that induce DNA re-replication in MCF 10a normal breast cells. For activity, positive = re-replication: % of control where 0% means no effect. Note: nearly all actives have a fitted effect of over 50% in size.
# Settings: MCF 10A DNA re-replication, Hoechst nuclear intensity, 48 h; activity, positive = re-replication: at 46.1 µM (top of the series)
# Potency is the fitted concentration of half-maximal effect; tags give direction and shape of the fitted curve.
Structure (SMILES),"activity, positive = re-replication",Potency
Oc1ccc2ccccc2c1CN1CCOCC1,inactive: -6.41%,
Cc1nc2c(-c3ccccc3)c(C)nn2c(C)c1CC(=O)O,,active: 14.6 µM
Cc1cccc(N2CCN(C(=O)c3cccc(N4CCCC4=O)c3)C(C)C2)c1 (stereo not given),,active: 1.46 µM
CCCCC(=O)NNC(=S)NC(=O)c1ccc([N+](=O)[O-])cc1,,"inconclusive [activator, partial curve, poor fit]"
O=C(Cc1ccc(Cl)cc1Cl)Nc1cccc(S(=O)(=O)Nc2ccccc2F)c1,,"inconclusive [activator, single point]"
Cc1ccc2nc(-c3ccc(SCC(=O)Nc4nc(C)cs4)nc3)[nH]c2c1,,"inconclusive [activator, single point]"
O=C(COC(=O)c1nc(Cl)c(Cl)c(Cl)c1Cl)NCc1ccccc1,,"inconclusive [activator, full curve, poor fit]"
N=c1c(C(=O)NCc2ccc(F)cc2)cc2c(=O)n3ccccc3nc2n1CC1CCCO1 (stereo not given),,"inconclusive [activator, full curve, poor fit]"
CCOC(=O)c1ccccc1NS(=O)(=O)c1ccccc1F,,"inconclusive [activator, single point]"
Cc1cccc(NC(=O)CC2NCCNC2=O)c1 (stereo not given),,"inconclusive [activator, single point]"
COc1ccccc1C1CC(c2ccco2)=NN1c1ccccc1 (stereo not given),,"inconclusive [activator, partial curve]"
Cc1ccc(CNC(=O)c2sccc2-n2cccc2)cc1,,"inconclusive [activator, partial curve, poor fit]"
CCc1ccc(-n2c(C)cc(/C=N/NC(=O)c3ccncc3)c2C)cc1,inactive: 8.87%,
N#Cc1c(F)cccc1NCc1cccnc1,inactive: 2.09%,
O=C(NCc1ccco1)C1CC(=O)N(c2ccc(O)cc2)C1 (stereo not given),,"inconclusive [activator, single point]"
CCOc1ccc(-n2c(SCC(=O)NCc3ccco3)nc3ccccc3c2=O)cc1,inactive: -1.85%,
Cc1ccc2oc(-c3cccc(NC(=O)Cc4cccs4)c3)nc2c1,,active: 14.6 µM
NS(=O)(=O)c1cccc(NC(=O)CSc2nnnn2-c2ccccc2)c1,,"inconclusive [activator, full curve, poor fit]"
O=C1C2C3C=CC(C3)C2C(=O)N1c1ccc(N2CCN(c3ccccn3)CC2)c([N+](=O)[O-])c1 (stereo not given),,"inconclusive [activator, single point]"
O/N=C/c1ccccc1Oc1ccccc1,inactive: -0.161%,
O=C(NNC(=S)NC1CC2C=CC1C2)c1cccnc1 (stereo not given),,"inconclusive [activator, single point]"
CC(C)N1CCN(Cc2ccc(-c3ccccc3)cc2)CC1CCO (stereo not given),,"inconclusive [activator, full curve, poor fit]"
CCC(=O)N1CCc2cc(S(=O)(=O)CCC(=O)NC(C)CC)ccc21 (stereo not given),inactive: 0.206%,
O=C(Cn1cnc([N+](=O)[O-])c1)c1ccc(Cl)cc1,,"inconclusive [activator, full curve, poor fit]"
COCCOC(=O)C1=C(C)NC2(O)c3ccccc3C(=O)C12O (stereo not given),inconclusive: 71% [activator],

Structure (SMILES),"activity, positive = re-replication",Potency
CCCCc1nnc(NC(=O)c2oc3ccc(OC)cc3c2C)s1,inactive: 17.1%,
Cc1ccc(-c2cc(C(=O)NCc3ccco3)no2)cc1,,"inconclusive [activator, full curve, poor fit]"
O=C(N/N=C/c1ccc2c(c1)OCO2)c1cc(-c2ccccc2Cl)nc2ccccc12,,"inconclusive [activator, partial curve, poor fit]"
CCOc1ccc(C(=O)c2ccc(OCC)c(N)c2)cc1N,,active: 18.4 µM
O=C(N/N=C/c1ccc(F)cc1)c1ccccc1,inactive: -7.05%,
CC(Sc1cnc2ccccc2n1)C(=O)O (stereo not given),,"inconclusive [activator, partial curve, poor fit]"
CC(C)Cn1c2c(c(O)c(C(=O)Nc3ncccc3O)c1=O)CCCC2,,"inconclusive [activator, single point]"
Nn1cnnc1N/N=C/c1ccc(F)cc1,,"inconclusive [activator, single point]"
CC1CCCN(CCCNC(=O)c2coc3nc4ccccc4nc23)C1 (stereo not given),inactive: 21.4%,
CC(C)Nc1nc(-c2cccnc2)nc(-c2ccc(Cl)cc2)c1C#N,,active: 23.1 µM
COC(=O)CNC(=O)COC(=O)C(Cc1ccccc1)NC(=O)c1ccco1 (stereo not given),,"inconclusive [activator, partial curve, poor fit]"
Cc1ccc(NC2=NCC(=O)N2Cc2cccs2)cc1C,,"inconclusive [activator, single point]"
O=C1NN=C(c2ccc(Br)cc2)CC1c1ccc(Cl)cc1 (stereo not given),,"inconclusive [activator, single point]"
O=S(=O)(NCCNc1ncc(C(F)(F)F)cc1Cl)C(F)(F)F,,"inconclusive [activator, single point]"
COc1ccc(/C=C/C(=O)Nc2ccc(S(=O)(=O)Nc3onc(C)c3C)cc2)cc1OC,,"inconclusive [activator, single point]"
Cc1ccc(CNC(=O)C2CCN(C(=O)c3cccc(Cl)c3)CC2)cc1,,"inconclusive [activator, single point]"
COc1ccc(NC(=S)N2CCC(C(=O)c3ccc(OC)cc3)CC2)cc1,inactive: 2.21%,
O=C(CSc1ccccc1)Nc1nnc(C2CC2)s1,inactive: 2.38%,
COc1cc(-c2cc(OC)c(O)c(OC)c2)cc(OC)c1O,,"inconclusive [activator, single point]"
Cc1cccc(NC(=S)NC2CCCCC2)n1,inactive: -3.6%,
COc1ccc(NC(=O)Nc2ccccc2C(N)=O)cc1OC,inactive: 3.57%,
Cc1ccc(Nc2nc(N)nc(CN3CCN(Cc4ccc5c(c4)OCO5)CC3)n2)cc1Cl,,"inconclusive [activator, single point]"
Cc1sc(NC(=O)COc2cccc(-n3cnnn3)c2)c(C#N)c1C,,"inconclusive [activator, single point]"
COc1cc(/C=N/N(C)C2=NS(=O)(=O)c3ccccc32)cc(OC)c1OC,,"inconclusive [activator, single point]"
COc1ccc(CNC(=S)NCc2ccc(OC(C)C)cc2)cc1,,"inconclusive [activator, full curve, poor fit]"

Structure (SMILES),"activity, positive = re-replication",Potency
COc1ccc(-c2c(-c3ccc(OC)c(C)c3O)n[nH]c2C)cc1,,"inconclusive [activator, single point]"
CCc1cc(C(=O)N2CCN(S(=O)(=O)c3cc(C)ccc3C)CC2)sc1C,,"inconclusive [activator, single point]"
CCNc1nc(NC(C)C)nc(N(n2cnnc2)S(=O)(=O)c2ccc(C)cc2)n1,inactive: 12.8%,
CCNC(=S)Nc1ccc(Cl)cc1Cl,inactive: 0.756%,
CCc1nnc(NC(=O)c2ccc(COc3ccccc3)o2)s1,inactive: 12.6%,
CCC(Oc1ccccc1)C(=O)N1CCN(C(=O)C(CC)Oc2ccccc2)CC1 (stereo not given),,"inconclusive [activator, single point]"
O=C(c1cccc(Cl)c1)N1CCN(c2ccccn2)CC1,inactive: 4.87%,
CCN(CC)C(=O)CSC1=C(C#N)C(c2ccco2)C(C(=O)OCCOC)=C(C)N1 (stereo not given),,"inconclusive [activator, single point]"
COc1cccc(-c2cc(C(=O)N3CCN(S(=O)(=O)c4ccc(Br)cc4)CC3)[nH]n2)c1,,"inconclusive [activator, partial curve, poor fit]"
N#CC1=C2SCC(O)(c3ccccc3)N2C(=O)CC1c1ccccc1F (stereo not given),,active: 23.1 µM
O=C(CNS(=O)(=O)c1ccc(Br)s1)NCc1ccccc1,,"inconclusive [activator, partial curve, poor fit]"
NC1=NC2(CCCCC2)n2c(nc3ccccc32)N1,inactive: 0.532%,
CCOc1ccc(Cc2c(C)[nH]c3ccc(C(=O)O)cc3c2=S)cc1,inactive: -4.53%,
Cc1cc2oc(=O)cc(CN3CCC(C)CC3)c2c(C)c1Cl,,"inconclusive [activator, partial curve, poor fit]"
Cc1ccc(S(=O)(=O)NCC(c2ccco2)S(=O)(=O)c2ccccc2)cc1 (stereo not given),,"inconclusive [activator, single point]"
CCN(CC)c1ccc(/C=N/NC(=O)C(O)c2ccccc2)cc1 (stereo not given),inactive: 1.47%,
CC(C)C(NC(=O)/C=C/c1cccc([N+](=O)[O-])c1)C(C)C,,"inconclusive [activator, partial curve, poor fit]"
O=C1CN(C(=O)c2cccc(Br)c2)c2ccccc2N1,,active: 23.1 µM
COc1ccc(OC)c(NC(=S)NCCSc2ccc(C)cc2)c1,inactive: 0.406%,
COc1c(O)cccc1[C@@H](O)C1CCN(CCc2ccc(F)cc2)CC1,inactive: -26.9%,
CCOc1ccc(CN2CCN(C(=O)c3cccc4ccccc34)CC2)cc1,inactive: 5.32%,
CCCCNc1c(-c2ccc(OC)c(SC3CCCCC3)c2)nc2cc(C)ccn12,,"inconclusive [activator, full curve, poor fit]"
CC(=O)Nc1cc(-c2ccccc2)ccc1O,inactive: -0.558%,
Cc1ccc(-c2cn(CCN)c(-c3ccc(Cl)nc3)n2)cc1,,"inconclusive [activator, full curve, poor fit]"
COC(=O)C1=CN(Cc2ccc(OC)c(OC)c2)C=C(C(=O)OC)C1c1cccc(OC)c1OC,,"inconclusive [activator, single point]"
